The text below walks through data of PubChem BioAssay (NCI).

This experiment deals with NCI-H322M lung. The experiment is described as follows: NCI anticancer screen, dose series, 48 h.

The structures appear in SMILES notation.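 96-well plates; 48 h exposure; 5 concentrations. Endpoints by linear interpolation between flanking doses. Not reached: highest tested concentration assigned. Abbreviation: GI50, concentration required for 50% inhibition of growth. Definition used: TGI = concentration required for complete inhibition of growth.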

`COc1ccc([C@H]2C(C(=O)c3ccc(Cl)cc3)C3(N[C@@H]2c2ccccc2)C(=O)Nc2ccc(Br)cc23)cc1` (some centres not stated): the GI50 was 13.4 µM and the TGI was greater than 53.3 µM.
